Results taken from PubChem BioAssay AID540317 (National Center for Advancing Translational Sciences (NCATS), 2011).
Among all 390,000 compounds or so, about 2,200 (0.56%) were called active. Inconclusive means that the source gave no clear call. Such entries were picked first, then a sample of the others. Calls come from the whole dose curve; as a rule, active = well fitted inhibition curve with a large enough effect; inconclusive = small, poorly fitted or top-dose-only effect; inactive = no such curve, though single readings can be large or run the other way. A potency beside an inconclusive call is a rough fit, not a confirmed value.

What follows are compounds tested against Chromobox protein homolog 1 (Homo sapiens) (UniProt P83916) (assay: HTS for Inhibitors of HP1-beta Chromodomain Interactions with Methylated Histone Tails). Conditions: AlphaScreen HP1-beta / biotin-H3K9me3 peptide binding; series mostly up to 114 µM.
UniProt P83916, sequence (P83916 whole entry, looked up): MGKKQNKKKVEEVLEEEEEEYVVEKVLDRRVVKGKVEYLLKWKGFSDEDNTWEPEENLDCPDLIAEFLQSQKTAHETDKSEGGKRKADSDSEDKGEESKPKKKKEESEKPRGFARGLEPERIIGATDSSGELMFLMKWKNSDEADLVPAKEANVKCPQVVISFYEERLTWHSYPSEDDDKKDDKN
How it was run: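 HP1-beta protein (50 nM final) preincubated 30 min at room temperature with biotinylated H3(1-18)K9me3 peptide (50 nM) in PBS pH 7.4, 0.01% Tween-20, then compound added for 30 min. AlphaScreen streptavidin donor/nickel chelate acceptor beads (10 ug/mL final), 30 min dark, luminescence read.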
Note: nearly all actives have a fitted effect of over 70% in size.
Potency is the fitted concentration of half-maximal effect; tags give direction and shape of the fitted curve.

SMILES | Potency
COc1cccc(CNc2sc3c(c2C(=O)Nc2ccc(OC)cc2OC)CCC3)c1 | inconclusive: 70.8 µM [inhibitor, partial curve]
Cc1ccc(-n2nnnc2CSc2nnc(-c3ccc(O)cc3)o2)cc1 | inactive
Cc1ncc([N+](=O)[O-])n1CCOC(=O)c1cc(Cl)cc(Cl)c1N | inconclusive: 70.8 µM [inhibitor, partial curve]
CN1CCc2c(sc3c2C(=O)NC(/C=C\c2ccccc2)N3)C1 (stereo not given) | inconclusive: 44.7 µM [inhibitor, partial curve, poor fit]
O=C(O)c1ccc(N2C(=O)/C(=C/c3ccc(-c4ccc([N+](=O)[O-])cc4)o3)C=C2c2ccccc2)cc1 | active: 14.1 µM
O=C1[C@@H]2Cc3c([nH]c4ccccc34)C(c3cccc([N+](=O)[O-])c3)N2C(=O)CN1CCCO (stereo not given in full) | inconclusive: 79.4 µM [inhibitor, single point]
Oc1c(Br)cc(/C=N/Nc2nncc3ccccc23)cc1Br | inconclusive: 89.1 µM [inhibitor, partial curve, poor fit]
CN(c1ccccc1)c1ccc(/C=C(\C#N)c2nnc3n2CCCCC3)cc1[N+](=O)[O-] | inconclusive: 17.8 µM [inhibitor, partial curve, poor fit]
CCN(CC)CCN(C(=O)c1ccc(C(=O)c2ccccc2)cc1)c1nc2c(OC)cccc2s1 | inactive
C[C@@H]1[C@H](c2ccccc2)Oc2ccc(Cl)cc2S(=O)(=O)N1CC1CCCN1C(=O)OC(C)(C)C (stereo not given in full) | inactive
S=C(NC1CC1)NC1CCCc2ccccc21 (stereo not given) | inactive
Cc1ccc(/C=C2\SC(=S)N(/N=C/c3cc([N+](=O)[O-])ccc3O)C2=O)o1 | active: 44.7 µM
CCC1CCCCN1C(=S)NC(=O)c1cc(S(=O)(=O)N2CCOCC2)ccc1C (stereo not given) | inactive
O=C(NC1CCCC1)C(c1cc2c(cc1[N+](=O)[O-])OCO2)N1CCCC1 (stereo not given) | inactive
Cc1cccc(NC(=O)CC2C(=O)OCCN2Cc2ccccc2)c1 (stereo not given) | inactive
CO/N=C/c1ccc(Oc2ccc([N+](=O)[O-])cc2[N+](=O)[O-])c(OC)c1 | inconclusive: 39.8 µM [inhibitor, partial curve]
CCCOc1cc(NCc2ccccc2)c2ncn(C(C)C)c2c1 | inconclusive: 56.2 µM [inhibitor, single point]
CC(=NNC(=O)c1ccncc1)c1ccc2ccccc2c1O | inactive
COC(CNC(=O)c1ccc(-n2c(=S)[nH]c3ccccc3c2=O)cc1)OC | inactive
Cc1cc(Oc2nc3ccccn3c(=O)c2/C=C(\C#N)c2nc3ccccc3s2)ccc1Cl | inactive
COc1cc(Cl)c(C)cc1NC(=O)CCn1cnc2onc(-c3ccc(F)cc3)c2c1=O | inactive
Cc1ccc(C(=O)Nc2nc(-c3ccco3)c(-c3ccco3)s2)o1 | active: 50.1 µM
Brc1cccc(CN2CCCCCC2)c1 | inconclusive: 22.4 µM [inhibitor, partial curve]

SMILES | Potency
Cc1ccc(Nc2nc(CSc3nnc(-c4ccccc4)n3C)cs2)cc1 | inconclusive: 39.8 µM [inhibitor, partial curve, poor fit]
O=C(Nc1ccc(S(=O)(=O)N2CCCC2)cc1)C1CC(=O)N(c2ccccc2)C1 (stereo not given) | inconclusive: 35.5 µM [inhibitor, single point]
CSc1ccc(C(=O)C2CCCN(S(=O)(=O)c3c(C)noc3C)C2)cc1 (stereo not given) | inactive
O=C(Nc1cc(S(=O)(=O)N2CCOCC2)ccc1N1CCCC1)c1ccc(F)cc1 | inconclusive: 7.94 µM [inhibitor, full curve, poor fit]
COc1cc(C)c(CN2CCN(C(C)C(=O)NC(C)c3ccccc3)CC2)cc1OC (stereo not given) | inactive
COc1ccc(CCNC(=O)COC(=O)c2ccco2)cc1OC | inactive
Cc1ccc(Sc2ncccc2C(=O)N(C)Cc2cccs2)c(C)c1 | inactive
Cn1c(=O)[nH]c2cc(Cl)cnc21 | inactive
COC(=O)c1cc(CN2CCN(c3ccccc3C)CC2)ccc1O | inconclusive: 15.8 µM [inhibitor, full curve, poor fit]
O=C(NCCCn1ccnc1)C(=O)Nc1ccccc1 | inconclusive: 89.1 µM [inhibitor, single point]
COc1ccc(-c2cc(C(F)F)n3ncc(C(=O)N4CCc5ccccc54)c3n2)cc1 | inconclusive: 14.1 µM [inhibitor, partial curve]
COc1cc2c(cc1NC(=O)C(Cl)Cl)-c1ccc(NC(=O)C(Cl)Cl)cc1C2 | inconclusive: 56.2 µM [inhibitor, single point]
O=c1[nH]c2ccccc2c2nc(-c3cccc(S(=O)(=O)N4CCCC4)c3)nn12 | inactive
COc1ccc(NC(=O)CN(C)CC(=O)Nc2ccccc2SC)cc1 | inconclusive: 31.6 µM [inhibitor, partial curve, poor fit]
COc1ccc(C(C(=O)Nc2ccc3c(c2)OCO3)N(C)C(=O)Cc2c[nH]c3ccccc23)cc1 (stereo not given) | inconclusive: 50.1 µM [inhibitor, partial curve]
CCOc1ccc(S(=O)(=O)N/N=C(\C)c2ccc(Cl)c(Cl)c2Cl)cc1 | inconclusive: 39.8 µM [inhibitor, single point]
CCOc1ccc(CNCCN2CCCC2)cc1 | inconclusive: 17.8 µM [inhibitor, full curve]
Cc1ccc(OCC(=O)N(Cc2ccc(N(C)C)cc2)CC2CCCO2)cc1C (stereo not given) | inconclusive: 17.8 µM [inhibitor, full curve]
CC(C)=CCc1c(O)cc2c(=O)c3ccc(O)cc3oc2c1O | inactive
O=C(c1cccc([N+](=O)[O-])c1)N1c2nc(-c3ccco3)nn2C2(CCCCC2)[C@@H]2CCCC[C@@H]21 | inconclusive: 7.94 µM [inhibitor, full curve]
COc1ccc(N2CCN(C(=O)C3CCC(Cn4c(=S)[nH]c5ccccc5c4=O)CC3)CC2)cc1 (stereo not given) | inconclusive: 39.8 µM [inhibitor, single point]
COc1ccc(-c2cc(C(=O)N3CC(C)CC(C)C3)c3ccccc3n2)cc1OC (stereo not given) | inconclusive: 35.5 µM [inhibitor, single point]
